Experimental data reported in patent US20260015418A1 (ABL BIO, published 2026).

Tests used:
[1] = biological target: T1, human ROR1-Fc protein (Sino Biological, 13968-H02H1) (human, UniProt Q01973 in part); experiment: SPR Biacore T200, ROR1-Fc amine-coupled on CM5, antibody as analyte, bivalent analyte model (Kd1)
T1 construct: Bought protein; also called human ROR1 protein (13968-H02H1, Fc tag)
Experimental: (§1) The binding affinity of both BA6M11(WT)x1A10M12 and BA6M11 (NA)x1A10M12 clones, which are anti-ROR1/anti-4-1BB bispecific antibodies comprising BA6M11 clone, was assessed using surface plasmon resonance (SPR). The antigens used for this assessment were human ROR1 protein (13968-H02H1, Fc tag) from Sino Biological and human 4-1BB protein (9220-4B-100, his tag) from R&D Systems. The measurements were conducted on a Biacore T200 instrument (Cytiva).
(§2) The CM5 chip (Cytiva, BR100530) was coated with a 5 μg/mL human ROR1 protein dilution in Acetate 4.0 (Cytiva, BR100349) using the amine coupling method (Cytiva, BR100050) to achieve a surface density of about 80 RU. […] These diluted antibody samples were then flowed over the human ROR1 protein-immobilized CM5 chip for approximately 60 seconds to conjugate the sample to the antigen, followed by flowing HBS-EP buffer (1×) over the sample-antigen complex for 180 seconds to dissociate the sample from the antigen. […] Binding affinity was analyzed using the bivalent analyte model to derive the primary association rate constant (Ka1) and primary dissociation rate constant (Kd1). The equilibrium dissociation constant (KD) was calculated by dividing the primary dissociation rate constant by the primary association rate constant, and this value was used to represent the final binding affinity.

[2] = biological target: T1, human ROR1-Fc protein (Sino Biological, …); experiment: SPR Biacore T200, ROR1-Fc amine-coupled on CM5, antibody as analyte, bivalent analyte model (Kd1/Ka1)
Experimental: as §1, §2

[3] = biological target: T2, human ROR1 on cells (NCI-N87, CHOK1-hROR1, AGS, CHO-huROR1-huB7-H3) (human, UniProt Q01973 30-937); experiment: flow cytometry on ROR1-positive NCI-N87 cells, FITC-conjugated anti-human IgG (Fc specific)
T2 construct: whole, on cells; also called cell surface ROR1
Experimental: In particular, Jurkat cells overexpressing human 4-1BB (Promega) and NCI-N87 cells, a human ROR1 positive cell line (ATCC), were seeded into V-bottom 96-well plates (96 Well Plate-RV, Bioneer, 910D09) and washed with 200 μl/well of 1% BSA buffer. Fourfold dilutions of the test materials (bispecific antibodies) starting from 100 nM were added to each well and incubated for 1 hour at 4° C. The plates were then washed with 1% BSA buffer. To each well, FITC-conjugated anti-human IgG (Fc specific) (Sigma, F9512) dissolved in 1% BSA buffer was added and incubated for 1 hour at 4° C. The plates were washed again with 1% BSA buffer. The mean fluorescence intensity (MFI) of FITC was measured by flow cytometry. Four-parameter logistic curve analysis was performed on the obtained MFI values using GraphPad software.

[4] = biological target: T1, human ROR1-Fc protein (Sino Biological, …); experiment: dual-antigen capture ELISA (DACE): plate coated with human ROR1-Fc, antibody titrated, then human 4-1BB-His and anti-His HRP, OD450
Experimental: Briefly, 96-well microtiter plates (NUNC, 446612) were coated overnight at 4° C. with human ROR1-Fc protein (Sinobio, 13968-H02H1) in PBS at 10 ng/well, then the plates were incubated with 1% BSA buffer (1×PBS, 1% (v/v) BSA) at 200 μl/well for 2 hours at 37° C. to prevent nonspecific binding. After blocking nonspecific binding, the wells were washed, and serial dilutions of the bispecific antibody test materials (starting at 100 nM) were added to each well. After incubation for 2 hours at 37° C., the plates were washed with PBS-T (1×PBS/0.05% (v/v) Tween-20). Then, human 4-1BB-His protein (Sinobio, 10041-H08H) dissolved in 1% (v/v) BSA was added to each well at 100 ng/well and incubated for 1 hour at 37° C. After washing the plates with PBS-T, anti-His HRP (Roche, Cat: 11965085001) was added and incubated for 1 hour at 37° C. After washing, color development was conducted TMB (tetramethylbenzidine, Sigma, T0440) and the reaction was stopped with 0.5M sulfuric acid (Samchun Chemicals, S1410), followed by reading absorbance (OD) at 450-650 nm in a spectrophotometer. Four-parameter logistic curve analysis was performed using GraphPad software.

[5] = biological target: T1, human ROR1-Fc protein (Sino Biological, …); experiment: SPR Biacore T200, ROR1-Fc amine-coupled on CM5, antibody as analyte, bivalent analyte model (Ka1)
Experimental: as §1, §2

B1: BA6M11(WT)x1A10M12 anti-ROR1/anti-4-1BB bispecific antibody (bispecific antibody, human IgG1, lambda)
heavy: EVQLLESGGGLVQPGGSLRLSCAASGFTFSNYDMSWVRQAPGKGLEWVSAIYHSGSSKYYADSVKGRFTISRDNSKNTLYLQMNSLRAEDTAVYYCARGGSGAWDTGFDYWGQGTLVTVSS[human IgG1 constant region not shown]GSGSGSGSGSGSGSGSGSQSVLTQPPSASGTPGQRVTISCSGSSSNIGNNYVTWYQQLPGTAPKLLIYADSHRPSGVPDRFSGSKSGTSASLAISGLRSEDEADYYCATWDYSLSGYVFGCGTKLTVLGGGGSGGGGSGGGGSGGGGSEVQLLESGGGLVQPGGSLRLSCAASGFTFSSYDMSWVRQAPGKCLEWVSWISYSGGSIYYADSVKGRFTISRDNSKNTLYLQMNSLRAEDTAVYYCARDAQRNSMREFDYWGQGTLVTVSS
light: QSVLTQPPSASGTPGQRVTISCSGSSSNIGSNDVSWYQQLPGTAPKLLIYYENNRPSGVPDRFSGSKSGTSASLAISGLRSEDEADYYCGAWDDSLSGYVFGGGTKLTVLGQPKAAPSVTLFPPSSEELQANKATLVCLISDFYPGAVTVAWKADSSPVKAGVETTTPSKQSNNKYAASSYLSLTPEQWKSHRSYSCQVTHEGSTVEKTVAPAECS
notes: also called BA6M11(WT)×1A10M12
koff [1]: 0.00146 s⁻¹
Kd [2]: 6.05 nM
EC50 (read off the curve) [3]: ~0.2 nM
EC50 (read off the curve) [4]: ~0.4 nM
kon [5]: 241000 M⁻¹ s⁻¹
